This note sets out measurements from the supplement of paper PMC8728848.

Common to all, as to assay: glycan array binding signal (z-score within array); higher = stronger binding
Holding throughout (conditions): glycan notation: IUPAC condensed, linker removed; mutation: R74S

In experiment [1] the target is Gal(b1-4)GlcNAc(b1-2)Man(a1-6)[GlcNAc(b1-2)Man(a1-3)]Man(b1-4)GlcNAc(b1-4)GlcNAc. In outline: (§1)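 Glycan array data came from 3228 arrays in the Consortium for Functional Glycomics database, and only arrays with an available protein sequence were kept. Glycan names were put into IUPAC-condensed notation, and columns mapping to the same glycan were averaged. The binding signal is a within-array Z-score, averaged across arrays of one protein sequence run at different concentrations or buffers and across linkers. A negative Z-score can be read as non-binding.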

The target of experiment [2] is Gal(b1-4)GlcNAc(b1-2)Man(a1-6)[Man(a1-3)]Man(b1-4)GlcNAc(b1-4)GlcNAc. The method, boiled down: as §1
Experiment [3] addresses Gal(b1-4)GlcNAc(b1-2)[Gal(b1-4)GlcNAc(b1-4)]Man(a1-3)[Gal(b1-4)GlcNAc(b1-2)Man(a1-6)]Man(b1-4)GlcNAc(b1-4)GlcNAc. The method, boiled down:
as §1

For experiment [4], the target named is Gal(b1-4)GlcNAc(b1-2)[Gal(b1-4)GlcNAc(b1-4)]Man(a1-3)[Gal(b1-4)GlcNAc(b1-2)[Gal(b1-4)GlcNAc(b1-6)]Man(a1-6)]Man(b1-4)GlcNAc(b1-4)GlcNAc. In outline: as §1
Experiment [5] concerns the target Gal(b1-4)GlcNAc(b1-2)[Gal(b1-4)GlcNAc(b1-4)]Man(a1-3)[GlcNAc(b1-4)][Gal(b1-4)GlcNAc(b1-2)Man(a1-6)]Man(b1-4)GlcNAc(b1-4)GlcNAc. In outline:
as §1

Experiment [6] deals with Gal(b1-4)GlcNAc(b1-2)[Gal(b1-4)GlcNAc(b1-4)]Man(a1-3)[GlcNAc(b1-4)][Gal(b1-4)GlcNAc(b1-2)[Gal(b1-4)GlcNAc(b1-6)]Man(a1-6)]Man(b1-4)GlcNAc(b1-4)GlcNAc. In outline:
as §1

For experiment [7], the target named is Gal(b1-4)GlcNAc(b1-2)[Gal(b1-4)GlcNAc(b1-6)]Man(a1-6)[Gal(b1-4)GlcNAc(b1-2)Man(a1-3)]Man(b1-4)GlcNAc(b1-4)GlcNAc. The method, boiled down:
as §1

For experiment [8], the target named is Gal(b1-4)GlcNAc(b1-2)[Gal(b1-4)GlcNAc(b1-6)]Man(a1-6)[Gal(b1-4)GlcNAc(b1-2)Man(a1-3)]Man(b1-4)GlcNAc(b1-4)[Fuc(a1-6)]GlcNAc. The method, boiled down:
as §1

Experiment [9] addresses Gal(b1-4)GlcNAc(b1-2)[Gal(b1-4)GlcNAc(b1-6)]Man(a1-6)[GlcNAc(b1-4)][Gal(b1-4)GlcNAc(b1-2)Man(a1-3)]Man(b1-4)GlcNAc(b1-4)GlcNAc. In outline:
as §1

The target in experiment [10] is Gal(b1-4)GlcNAc(b1-2)[Gal(b1-4)GlcNAc(b1-6)]Man(a1-6)[GlcNAc(b1-4)][Gal(b1-4)GlcNAc(b1-2)[Gal(b1-4)GlcNAc(b1-4)]Man(a1-3)]Man(b1-4)GlcNAc(b1-4)[Fuc(a1-6)]GlcNAc. In outline:
as §1

Experiment [11] addresses Gal(b1-4)GlcNAc(b1-3)Gal(b1-3)GalNAc. In outline: as §1
For experiment [12], the target named is Gal(b1-4)GlcNAc(b1-3)Gal(b1-3)GlcNAc. In outline:
as §1

Experiment [13] addresses Gal(b1-4)GlcNAc(b1-3)Gal(b1-4)Glc. The method, boiled down: as §1
Experiment [14] has as its target Gal(b1-4)GlcNAc(b1-3)Gal(b1-4)GlcNAc. In outline:
as §1

Experiment [15] has as its target Gal(b1-4)GlcNAc(b1-3)Gal(b1-4)GlcNAc(b1-2)Man(a1-3)[Gal(b1-4)GlcNAc(b1-3)Gal(b1-4)GlcNAc(b1-2)Man(a1-6)]Man(b1-4)GlcNAc(b1-4)GlcNAc. The method, boiled down: as §1
In experiment [16] the target is Gal(b1-4)GlcNAc(b1-3)Gal(b1-4)GlcNAc(b1-2)Man(a1-3)[Gal(b1-4)GlcNAc(b1-3)Gal(b1-4)GlcNAc(b1-2)Man(a1-6)]Man(b1-4)GlcNAc(b1-4)[Fuc(a1-6)]GlcNAc. The method, boiled down: as §1
For experiment [17], the target named is Gal(b1-4)GlcNAc(b1-3)Gal(b1-4)GlcNAc(b1-2)[Gal(b1-4)GlcNAc(b1-3)Gal(b1-4)GlcNAc(b1-6)]Man(a1-6)[Gal(b1-4)GlcNAc(b1-3)Gal(b1-4)GlcNAc(b1-2)Man(a1-3)]Man(b1-4)GlcNAc(b1-4)GlcNAc. The method, boiled down: as §1
For experiment [18], the target named is Gal(b1-4)GlcNAc(b1-3)Gal(b1-4)GlcNAc(b1-2)[Gal(b1-4)GlcNAc(b1-3)Gal(b1-4)GlcNAc(b1-6)]Man(a1-6)[Gal(b1-4)GlcNAc(b1-3)Gal(b1-4)GlcNAc(b1-2)Man(a1-3)]Man(b1-4)GlcNAc(b1-4)[Fuc(a1-6)]GlcNAc. In outline:
as §1

The target in experiment [19] is Gal(b1-4)GlcNAc(b1-3)Gal(b1-4)GlcNAc(b1-3)Gal(b1-4)GlcNAc. The method, boiled down: as §1
Experiment [20] addresses Gal(b1-4)GlcNAc(b1-3)Gal(b1-4)GlcNAc(b1-3)Gal(b1-4)GlcNAc(b1-2)Man(a1-3)[Gal(b1-4)GlcNAc(b1-3)Gal(b1-4)GlcNAc(b1-3)Gal(b1-4)GlcNAc(b1-2)Man(a1-6)]Man(b1-4)GlcNAc(b1-4)GlcNAc. The method, boiled down:
as §1

The target of experiment [21] is Gal(b1-4)GlcNAc(b1-3)Gal(b1-4)GlcNAc(b1-3)Gal(b1-4)GlcNAc(b1-2)Man(a1-3)[Gal(b1-4)GlcNAc(b1-3)Gal(b1-4)GlcNAc(b1-3)Gal(b1-4)GlcNAc(b1-2)Man(a1-6)]Man(b1-4)GlcNAc(b1-4)[Fuc(a1-6)]GlcNAc. In outline: as §1
For experiment [22], the target named is Gal(b1-4)GlcNAc(b1-3)Gal(b1-4)GlcNAc(b1-3)Gal(b1-4)GlcNAc(b1-2)[Gal(b1-4)GlcNAc(b1-3)Gal(b1-4)GlcNAc(b1-3)Gal(b1-4)GlcNAc(b1-6)]Man(a1-6)[Gal(b1-4)GlcNAc(b1-3)Gal(b1-4)GlcNAc(b1-3)Gal(b1-4)GlcNAc(b1-2)Man(a1-3)]Man(b1-4)GlcNAc(b1-4)[Fuc(a1-6)]GlcNAc. In outline: as §1

Some of the results follow.

B1: Gal 7 (Homo sapiens) (protein)
chain: MSNVPHKSSLPEGIRPGTVLRIRGLVPPNASRFHVNLLCGEEGGSDAALHFNPRLDTSEVVFNSKEGGSWGREESGPGVPFGRGQPFEVLIIASDDGFKAVVGDAQYHHFRHRLPLARVRLVEVGGDVQLDSVRIF
For B1, the “glycan array binding signal (z-score)” value in [1] is -0.228; in experiment [2], -0.576; in experiment [3], 0.975; in [4], -0.184; in experiment [5] it was -0.403; in experiment [6], -0.385. The “glycan array binding signal (z-score)” value in experiment [7] was -0.379; in experiment [8], 1.23; in experiment [9], -0.422; in [10], 0.183; in [11], -0.471; in experiment [12], 0.626. Further, the “glycan array binding signal (z-score)” value in experiment [13] is -0.482; in experiment [14], -0.636; in experiment [15], 3.67; in experiment [16], 0.763; in [17] it was 1.49; in experiment [18], 1. For the same molecule, the “glycan array binding signal (z-score)” value in experiment [19] was -0.395; in experiment [20], 1.41; in [21] it was 2.72; in experiment [22], 3.31.
